The chains are these.
B1: LINE1-mini (parent)
chain: GGCAGAGCUCAACACAGCGUGGCAAAGUGGCUGUGGCUAGACUGCC

The source gives no read counts; variants with many changes may rest on few reads.

In the data set the parent is B1. Put plainly: self-cleavage, relative activity (ratio to wild type); higher = more cleavage; in vitro, sequencing; the parent is a self-cleaving ribozyme.
As for A14G U20G U34A, the self-cleavage came out at 0.02.

On to A14G G22A G44C, for which the self-cleavage worked out at 0.08.

Consider A14G G19U C23U C31G, for which the self-cleavage came out at 0.05.

As for A14C U20C C23G, the self-cleavage is 0.03.

As to A14C G30A C31U U32A, the self-cleavage stood at 0.04.

As for A14G G19A C42A, the self-cleavage came out at 0.18.

A14C C18U G22A C42A: the self-cleavage was 0.05.

As for C13U U34G C42A, the self-cleavage is 0.06.

With C13U U34C G40C, the self-cleavage was found to be 0.01.

As to C13U G29U A39C, the self-cleavage worked out at 0.1.

As for C13U G27U C31U, the self-cleavage was found to be 0.08.

On to C13U G27U C31G, for which the self-cleavage is 0.08.

As to C13U U34A A41U, the self-cleavage is 0.08.

C13U G22U G40U C42A: the self-cleavage turned out to be 0.03.

As for A14G G19C G21U G40U, the self-cleavage is 0.05.

As for A14G C15U G17U A39U, the self-cleavage amounted to 0.06.

For the variant A14G G19A A25C G33A A39U, the self-cleavage turned out to be 0.13.

On to A14G G19U G27C A39U, for which the self-cleavage is 0.15.

As for A14C G22U G27C G36U, the self-cleavage was 0.03.

Regarding A14G G22A G29U, the self-cleavage was found to be 0.09.

Regarding A14G A16C G40C, the self-cleavage was 0.03.

Consider A14C C31A C45U, for which the self-cleavage is 0.05.

Take C13U G27A G44C C46A: the self-cleavage was found to be 0.05.

For the variant A14G C18G G30A, the self-cleavage came to 0.32.

Turning to A14G U20A A26C A39C C45U C46G, the self-cleavage stood at 0.02.

In the case of A14G G17C G29C C31G A39C, the self-cleavage stood at 0.02.

Regarding A14C C37A G44A, the self-cleavage was found to be 0.05.

C13U U20G G21C: the self-cleavage is 0.1.

Consider A14U A16U C18A A24U C42U, for which the self-cleavage was found to be 0.04.

Turning to A14C U28C C42A, the self-cleavage was found to be 0.04.

As to A14G G22U A26U U38C A41C, the self-cleavage is 0.02.

As to A14C G36U G40C, the self-cleavage turned out to be 0.14.

In the case of A14G G21A G29U, the self-cleavage is 0.25.

Regarding A14C C18U C23A U32G, the self-cleavage was determined as 0.13.

For the variant A14G G19U A24G G35U A41C C45A, the self-cleavage was determined as 0.02.

Consider A14G G27U U38G, for which the self-cleavage amounted to 0.01.

With A14G G21C C23G U28G G33A, the self-cleavage was 0.02.

Turning to A14G A16G C18U A25C A26U, the self-cleavage was 0.03.

As for C13U U28A G29U U43C, the self-cleavage worked out at 0.05.

Regarding A14C A24G C31G G35C U38G, the self-cleavage was 0.01.

For A14G G19U G30U, the self-cleavage is 1.25.

For A14C A16G G21A G35A, the self-cleavage is 0.02.

As for C13U U28A C31G C37U G40C, the self-cleavage came to 0.15.

In the case of A14C C18A G21U U32G G44C, the self-cleavage was found to be 0.03.

With A14G G35U G40A C42U, the self-cleavage came out at 0.01.

Regarding C13U U20G G22A, the self-cleavage came to 0.13.

Turning to A14G A26C C42U, the self-cleavage stood at 0.14.

A14G A16C G17U C31U: the self-cleavage stood at 0.06.

Consider A14C C15G C18U C31U, for which the self-cleavage is 0.01.

Consider C13U G27C U28C, for which the self-cleavage was determined as 0.13.

As to A14C G33A C46U, the self-cleavage was 0.1.

For A14C G33A C46G, the self-cleavage stood at 0.09.

For the variant A14G C18A G21A G27U C31G G33A C37A, the self-cleavage was found to be 0.02.

Turning to A14G C42U C45A, the self-cleavage came out at 0.04.

For A14G G40C C45G, the self-cleavage was 0.12.

With A14G G19U G33A A39G, the self-cleavage amounted to 0.06.

On to A14C C18A G22U A24C G27A G35U U43C, for which the self-cleavage is 0.01.

For A14C G40U C45A, the self-cleavage came to 0.07.

As to A14G C37A G44U, the self-cleavage was 0.07.

For the variant A14C G19C G22A, the self-cleavage was found to be 0.03.

Consider A14C G17C U20A U28A C31A, for which the self-cleavage worked out at 0.02.

For the variant A14C G22U A24C G36U, the self-cleavage worked out at 0.01.

As for C13U U20A U38C, the self-cleavage is 0.04.

With C13U G36A A41G, the self-cleavage is 0.05.

Consider A14C G17A G33A, for which the self-cleavage was determined as 0.03.

On to A14G U34C U38C, for which the self-cleavage amounted to 0.07.

In the case of A14C A25G U34A G36C C42G, the self-cleavage came to 0.01.

For the variant C13U G29U U32C, the self-cleavage is 0.15.

A14C C31A G35A: the self-cleavage amounted to 0.02.

Regarding A14G A16U G35A C46A, the self-cleavage was found to be 0.06.

Consider A14C C18A A25U U43G, for which the self-cleavage amounted to 0.

Regarding A14C C18G A24G C31A G36A G44U, the self-cleavage was 0.05.

As for A14U A16G G19U G27A U38G, the self-cleavage came out at 0.02.

Consider A14C G22A A26C, for which the self-cleavage turned out to be 0.03.

Regarding A14C A25C C31U G33C, the self-cleavage came out at 0.04.

With A14C U20A C37U, the self-cleavage came to 0.06.

Regarding A14G G22A A24C A41C C46A, the self-cleavage worked out at 0.03.

As to A14C G19A C31U, the self-cleavage is 0.03.

As to A14C U28C G36A, the self-cleavage turned out to be 0.22.

For A14C G21A G27U C31A C46U, the self-cleavage was 0.02.

For the variant A14C G17U A24U G33A C42U, the self-cleavage stood at 0.15.

Consider A14C U28A C31U, for which the self-cleavage amounted to 0.01.

As for A14C G19A U34C G40A C42G C45U, the self-cleavage came to 0.04.

A14C C18A G40A C45G: the self-cleavage came out at 0.25.

As to A14G G17U A24G, the self-cleavage amounted to 0.

Consider A14C G36U C46U, for which the self-cleavage is 0.04.

In the case of A14C G29A C31A G40C A41C, the self-cleavage worked out at 0.05.

Regarding A14C G19U A26G U32A A41G, the self-cleavage came out at 0.05.

Consider A14C G29U G33U G40A C45G, for which the self-cleavage was determined as 0.06.

As to A14C G33C G36A, the self-cleavage was 0.05.

For A14G G21A A24C G33C C37U A41C, the self-cleavage amounted to 0.

As to C13U G22U G40C, the self-cleavage came to 0.02.

Turning to A14C U32G U34A, the self-cleavage came out at 0.01.

For the variant A14G C31U C37A G40U, the self-cleavage was 0.01.

As for A14C G22C C23U C45G, the self-cleavage is 0.01.

Take A14G G21U G35U C42U: the self-cleavage was 0.11.

As to A14C C15A U28A C42A, the self-cleavage was 0.12.

Consider A14G U34G G35U G40U C45A C46U, for which the self-cleavage was 0.

As to A14C G33C G35C, the self-cleavage stood at 0.05.

A14C C15A G19U G36A C37U: the self-cleavage was 0.07.

Regarding A14C G17A C45G, the self-cleavage came to 0.1.

As to A14G U20A G21C, the self-cleavage stood at 0.45.

For A14G G21A G22C C23U A26G G33A, the self-cleavage worked out at 0.03.

Take A14G G17U U28G U32A U34C: the self-cleavage is 0.01.

As for A14C A25C U28A G30A C31A G36U C37G, the self-cleavage came out at 0.1.

A14G G21U G29U: the self-cleavage amounted to 0.15.

Turning to A14G U32G C37A, the self-cleavage is 0.05.

For the variant A14C C15A G22C A26U, the self-cleavage was 0.03.

Turning to A14C G21C A25C G30C, the self-cleavage was 0.04.

As to A14U A16G A26G U38G A41U U43A C46A, the self-cleavage was found to be 0.05.

With A14C G27A U38A C42U, the self-cleavage was determined as 0.04.

On to A14C A25U G40A, for which the self-cleavage was 0.01.

In the case of A14C C31G U34A, the self-cleavage was determined as 0.01.

Turning to A14U A16C G40U, the self-cleavage worked out at 0.09.

A14C U20G G36C: the self-cleavage stood at 0.

For the variant A14G G22C G33A, the self-cleavage amounted to 0.03.

Turning to A14C A26G U32C U43C, the self-cleavage is 0.1.

For the variant A14G G17A A25C G33C G36C, the self-cleavage is 0.02.

In the case of A14G U34G C42A, the self-cleavage is 0.03.

Take C13U U34A A39U C45G: the self-cleavage turned out to be 0.14.

With A14G C23U U28C G29A U32A U34C G36A U38G G40A, the self-cleavage was 0.68.

Regarding C13U G33A G35C, the self-cleavage was 0.06.

For the variant A14G G19A G22C, the self-cleavage was 0.12.

Turning to A14G C15G A24C G40U, the self-cleavage worked out at 0.

For C13U U28G U38A A39G, the self-cleavage was found to be 0.07.

With A14G G21A G30A, the self-cleavage is 0.28.

Consider A14G A24C G30C A41C C42G G44U, for which the self-cleavage stood at 0.07.

A14C G35C G40U C45G: the self-cleavage was found to be 0.06.

For the variant A14C U28A A41C, the self-cleavage amounted to 0.01.

Consider A14U A16U U38C, for which the self-cleavage worked out at 0.04.

As to C13U G35C C37G, the self-cleavage was determined as 0.02.

Turning to A14C A26G G33C, the self-cleavage is 0.02.

In the case of C13U G22U G33A, the self-cleavage is 0.16.

Turning to C13U U32C C45G, the self-cleavage amounted to 0.13.

Turning to A14G U20G C23A, the self-cleavage stood at 0.03.

For the variant A14C G19C G22A C23A A25C U28C U38A C46A, the self-cleavage worked out at 0.08.

For the variant A14C C18A A25G, the self-cleavage was found to be 0.02.

As for C13U G22U G33C U34A G36U, the self-cleavage amounted to 0.03.

On to A14C A24U U32C U34C C37U A39G C45A, for which the self-cleavage worked out at 0.01.

Consider A14C G22U U34C C45G C46U, for which the self-cleavage turned out to be 0.05.

Take C13U G22U C37A U38G: the self-cleavage is 0.03.

In the case of A14C C18U G33U, the self-cleavage amounted to 0.05.

As to C13U U32C C46A, the self-cleavage amounted to 0.01.

In the case of C13U U32C C46G, the self-cleavage amounted to 0.06.

With A14U A16G G40C, the self-cleavage is 0.02.

C13U G27C G29U: the self-cleavage is 0.22.

Consider A14C C31A G36C, for which the self-cleavage came to 0.06.

On to A14C G22C G30A, for which the self-cleavage is 0.18.

With A14C C37A C42U U43C, the self-cleavage amounted to 0.07.

Take A14C A24G G33C C37A C46G: the self-cleavage stood at 0.02.

In the case of C13U G29U G33A, the self-cleavage was 0.07.

As for A14G G27C C37G, the self-cleavage amounted to 0.04.

Consider A14C G17U U28G, for which the self-cleavage stood at 0.08.

A14C G17U G27U G36U: the self-cleavage came to 0.1.

Regarding A14U A16C G21C A24G, the self-cleavage was 0.02.

A14G G21U A25U U34G U38G U43A: the self-cleavage is 0.01.

For the variant A14G A16G G36C U43A, the self-cleavage worked out at 0.01.

As for A14U A16U C46U, the self-cleavage was determined as 0.1.

As to A14C G27C A41U C45G, the self-cleavage came out at 0.12.

On to A14C C15A U32C, for which the self-cleavage was determined as 0.03.

In the case of A14G G19C C37A, the self-cleavage is 0.05.

Turning to A14G C23U A26C C37A C42A G44U, the self-cleavage turned out to be 0.12.

For C13U G33C G36C G40A, the self-cleavage stood at 0.

For the variant A14G G21A U34A U43C, the self-cleavage came to 0.

A14C G17U U38G: the self-cleavage amounted to 0.

Turning to A14C G22A G35C, the self-cleavage came to 0.06.

In the case of A14G C37U C46G, the self-cleavage came to 0.01.

The values above are taken from the RNAGym collection of RNA variant scans (doi:10.7554/elife.90254).
